# Out of some 310,000 compounds screened, about 18,000 (5.8%) were called active. The inconclusive results got no clear call from the source; some entries with a clear call stand among them for comparison. Calls follow the shape of the dose curve; as a rule, active = well fitted inhibition curve with a large enough effect; inconclusive = small, poorly fitted or top-dose-only effect, or another doubt; inactive = no such curve, though single readings can be large or run the other way. No potency is given beside an inconclusive call; the fits are too rough.
# Experiment: Primary qHTS for delayed death inhibitors of the malarial parasite plastid, 48 hour incubation
# Settings: P. falciparum luciferase growth in erythrocytes; series mostly up to 28.7 µM
# Procedure, shortened: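 Erythrocytes infected with P. falciparum carrying an integrated firefly luciferase reporter (2% hematocrit, 0.1% parasitemia final) were exposed to compounds in RPMI 1640 with 0.5% Albumax at 37 C, 5% CO2. Growth inhibition was scored as reduced luminescence.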
# Potency is read from the fitted curve at half-maximal effect; tags tell the direction and shape of the fitted curve.
row,SMILES,Potency
1,O=C(Nc1nc2ccc(Cl)cc2s1)c1ccc(N2CCCCC2)c([N+](=O)[O-])c1,"inconclusive [inhibitor, single point]"
2,COc1ccc(-c2csc3ncnc(N4CCN(S(=O)(=O)c5ccc(C)cc5)CC4)c23)cc1,active: 11.7 µM
3,CSc1nc2nccc(-c3ccc(Oc4ccccc4)cc3)n2n1,"inconclusive [inhibitor, single point]"
4,CN(C)/C(=N\S(=O)(=O)c1ccccc1)c1ccc(Cl)cc1,inactive
5,O=c1[nH]c2ccc(S(=O)(=O)N3CCN(c4ccccc4)CC3)cc2[nH]c1=O,"inconclusive [inhibitor, partial curve]"
6,COc1ccc(/C=C/C(=O)OCC(=O)NCc2ccco2)c(OC)c1,inactive
7,O=C(Cc1cccs1)NC1CCCC1,inactive
8,C#CCOc1ccc2c3c(c(=O)oc2c1)CCCC3,inactive
9,Cn1c(=O)c2c(nc(N/N=C/c3ccc(OC(=O)c4ccco4)cc3)n2Cc2ccc(F)cc2)n(C)c1=O,"inconclusive [inhibitor, single point]"
10,O=C(Nc1cccs1)Nc1c(F)c(F)cc(F)c1F,"inconclusive [inhibitor, single point]"
11,Cn1c(C(C#N)C2=C(Cl)C(=O)N(c3ccccc3)C2=O)nc2ccccc21 (centres undefined),"inconclusive [inhibitor, partial curve, poor fit]"
12,Cc1ccc(-n2c(SCC(=O)Nc3ncc(Cl)cc3Cl)nc3ccccc32)cc1,"inconclusive [inhibitor, single point]"
13,O=C(N[C@@H]1C[C@H]2CC[C@@H]1C2)c1ccco1,inactive
14,CCN(CC)C(=O)CSc1nnc(-c2cc(OC)cc(OC)c2)o1,inactive
15,O=C(c1ccc(CN2CCc3ccccc3C2)cc1)N1CCCCC1,"inconclusive [inhibitor, single point]"
16,CCOC(=O)C1=C(COC(=O)CCOc2cc(C)ccc2C)NC(=O)NC1C (centres undefined),"inconclusive [inhibitor, single point]"
17,Cc1ccc(CSc2ccc(S(=O)(=O)N3CCCCC3)cn2)cc1,"inconclusive [inhibitor, partial curve, poor fit]"
18,CN(C)S(=O)(=O)c1cccc(NC(=S)N/N=C/c2cccc(O)c2)c1,"inconclusive [inhibitor, partial curve, poor fit]"
19,CCOc1ccc(N(Cc2cc3ccc(C)cc3[nH]c2=O)S(=O)(=O)c2ccccc2)cc1,"inconclusive [inhibitor, single point]"
20,CNC(=O)COC(=O)c1ccc2c(c1)NC(=O)C1CCCN21 (centres undefined),inactive
21,Cc1ccc(NC(=O)Nc2c(Cl)cccc2Cl)cn1,inactive
22,CNC(=O)c1c(NC(=O)c2ccc(S(=O)(=O)N3CC(C)OC(C)C3)cc2)sc2c1CCN(C(C)C)C2 (centres undefined),"inconclusive [inhibitor, partial curve, poor fit]"

row,SMILES,Potency
1,C=CCSC1=Nc2sccc2C2=NC(=O)CN12,inactive
2,CC1=Nc2ccc(Br)cc2C(c2ccccc2)N1CC(=O)NN (centres undefined),"inconclusive [inhibitor, partial curve]"
3,CCOc1cc(C(=O)CCC(=O)OCC(=O)NC(=O)NCC(C)C)ccc1O,"inconclusive [inhibitor, single point]"
4,COc1ccc(CCOC(=O)c2ccc(NC(=O)CC#N)cc2)cc1,"inconclusive [inhibitor, single point]"
5,C=CCOC(=O)c1[nH]c2c(c1C)C(=O)CC(c1cc(OC)c(OC)c(OC)c1)C2 (centres undefined),active: 9.28 µM
6,Cc1cc(N2CCN(C)CC2)nc2ccc(NC(=S)N3CCOCC3)cc12,"inconclusive [inhibitor, single point]"
7,CCn1c(=O)n(CC)c2cc(N3CCCC3)c(NC(=O)c3ccccc3F)cc21,"inconclusive [inhibitor, partial curve, poor fit]"
8,COc1cccc(CNC(=O)C(=O)NCCC2CCCCN2S(=O)(=O)c2ccc(C)cc2)c1 (centres undefined),"inconclusive [inhibitor, partial curve]"
9,COCCn1c(C)cc(/C=N/NC(=O)c2cc3ccccc3cc2O)c1C,active: 3.7 µM
10,COC(=O)c1ccc(C(c2c(C)n(C)n(-c3ccccc3)c2=O)c2c(C)n(C)n(-c3ccccc3)c2=O)cc1,"inconclusive [inhibitor, full curve, poor fit]"
11,O=C(CS(=O)(=O)Cc1ccccc1)Nc1nc2ccccc2s1,inactive
12,COC(=O)c1cc(Br)c(=O)n(-c2ccccc2F)c1,"inconclusive [inhibitor, full curve, poor fit]"
13,Cc1ccccc1CC(=O)Nc1sc(C(C)C)cc1C(=O)N1CCOCC1,"inconclusive [inhibitor, single point]"
14,CC(C)CCOP(=O)(c1ccc(N(C)C)cc1)C(O)c1ccccc1F (centres undefined),active: 2.94 µM
15,COc1ccc(N(CC(=O)Nc2ccc3c(c2)OCO3)S(=O)(=O)c2ccccc2)cc1OC,active: 2.94 µM
16,O=C(CC1OC(=O)c2ccccc21)Nc1ccc(Cl)c(S(=O)(=O)N2CCCCC2)c1 (centres undefined),inactive
17,COc1cccc(OCC(=O)NNC(=O)C(=O)N2CCCC2)c1,inactive
18,Cn1c(-c2cccc([N+](=O)[O-])c2)[n+](C)c2ccccc21,"inconclusive [inhibitor, partial curve, poor fit]"
19,COC(=O)c1ccc(NC(=O)CCS(=O)(=O)c2ccc(Br)s2)cc1,"inconclusive [inhibitor, partial curve, poor fit]"
20,CCn1c(/C=C/c2ccc(O)c(O)c2)nc2ccccc2c1=O,"inconclusive [inhibitor, single point]"
21,CCCn1c(=O)c2ccccc2n2c(SCCOc3ccc(OC)cc3)nnc12,"inconclusive [inhibitor, partial curve, poor fit]"
22,O=c1[nH]c(C2CCN(S(=O)(=O)c3ccccc3C(F)(F)F)CC2)nc2c1nnn2Cc1ccccc1,active: 5.86 µM
